# Numbered stars: 1 amine (or outer) side, 2 acyl side, 3 side chain; on linkers, the order of the positions; unused ones are H or OH. Bridge positions count the residues as written; N and C are the ends. Square brackets hold non-standard residues; d marks the D form. Triazole bridges read from a SMILES are 1,4-linked. Ends that are not written are not given here. Peptide text beside a SMILES is read from it. * marks the point of attachment. Biotinyl(3aR,4R,6aS) = O=C1N[C@@H]2[C@@H](CS[C@@H]2CCCCC(=O)*)N1; NH(CH2CH2O)5CH2CO = O=C(COCCOCCOCCOCCOCCN[*:1])[*:2]; Lys(N3) = [N-]=[N+]=NCCCC[C@H](N)C(=O)O; AEEEA = NCCOCCOCCOCC(=O)O; Pra = C#CC[C@H](N)C(=O)O
# How the values were obtained:
# [1] = biological target: His-tagged CD8α human recombinant protein (Homo sapiens, UniProt P01732); assay: CD8 ELISA (affinity assay) of biligands to determine cooperativity; assay type: binding; parameters: purchased Origene TP760215
# His-tagged CD8α human recombinant protein, sequence (P01732 22-235): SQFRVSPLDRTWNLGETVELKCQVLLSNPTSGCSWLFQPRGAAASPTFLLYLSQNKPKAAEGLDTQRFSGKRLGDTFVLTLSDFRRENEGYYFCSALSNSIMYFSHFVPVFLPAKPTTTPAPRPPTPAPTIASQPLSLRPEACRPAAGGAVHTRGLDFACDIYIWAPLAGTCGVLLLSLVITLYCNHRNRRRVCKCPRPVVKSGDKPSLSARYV
# Procedure: CD8 ELISA (Affinity assay). […] The plate was then blocked with 2 μM Biotin for 15 min.
# This predicts that an optimized linker to covalently join two PCC macrocycles will have a length near 28.2 Å. In FIG. 17 that prediction is validated by testing polyethylene glycol (PEG) linkers of varying lengths. […] This represents a >30-fold improvement in affinity relative to the individual PCC macrocyclic ligands. Shorter or longer linkers yield biligand affinities that, while improved over either of the PCC macrocycles, are about ˜10-fold below that of the optimal linker.
# His-tagged CD8 epitopes = assay: Assay to determine orientation of macrocycle binding to CD8 Epitopes1-2; parameters: species or system human; settings: polyglycine-substituted His-tagged CD8 epitopes at 2 μM
# Procedure: Assay to determine orientation of macrocycle binding to CD8 Epitopes1-2. […] Wash Buffer without epitope was added as a control. […] Data are shown after subtraction of the no-epitope background.
# For this experiment, the CD8 Epitope1 was re-synthesized with a His6 assay handle and polyglycine substitution of the sequences either N-terminal or C-terminal to the location of the click handle (R10) (FIG. 12A). The CD8 Epitope2 was similarly re-synthesized with a His6 assay handle and polyglycine substitution (N-terminal or C-terminal to K58) (FIG. 12B). Point ELISAs for the His-tagged CD8 epitopes were conducted against the immobilized macrocyclic peptide ligands. For PEG3-biotin-modified Cy(wplrf) (SEQ ID NO: 13), Cy(AKYRG) (SEQ ID NO: 8), Cy(rwfnv) (SEQ ID NO: 14), and Cy(ffrly) (SEQ ID NO: 17), maximum ELISA signals were obtained for binding to CD8 Epitope1N (dark bars, FIG. 12C) indicating preferential binding to the N-terminal portion of CD8 Epitope1. […] For PEG3-biotin-modified Cy(HGRGH) (SEQ ID NO: 21) and Cy(wsvnv) (SEQ ID NO: 34), maximum ELISA signals were obtained for binding to CD8 Epitope2C (light grey bars, FIG. 12D) indicating preferential binding to the C-terminal portion of CD8 Epitope2.
# [2] = mouse, in vivo, iv
compound,measurement,setting,value
"CC(C)C[C@H]1NC(=O)[C@H]2CCCN2C(=O)[C@@H](Cc2c[nH]c3ccccc23)NC(=O)[C@@H](NC(=O)COCCOCCOCCOCCOCCNC(=O)[C@@H]2CCCCn3cc(nn3)C[C@H](NC(=O)COCCOCCOCCNC(=O)CCCC[C@H]3SC[C@H]4NC(=O)N[C@H]43)C(=O)N[C@@H](Cc3c[nH]cn3)C(=O)NCC(=O)N[C@@H](CCCNC(=N)N)C(=O)NCC(=O)N[C@@H](Cc3c[nH]cn3)C(=O)N2)Cc2cn(nn2)CCCC[C@@H](C(N)=O)NC(=O)[C@@H](Cc2ccccc2)NC(=O)[C@@H](CCCNC(=N)N)NC1=O [Biotin-PEG3-Cy(HGRGH)-PEG5-Cy(wplrf)] ({Biotinyl(3aR,4R,6aS)-AEEEA}-[Pra]HGRGH[Lys(N3)][NH(CH2CH2O)5CH2CO][Pra][dW][dP][dL][dR][dF][Lys(N3)]-NH2; triazole 1-7, 9-15)",improvement in affinity relative to the individual PCC macrocyclic ligands,[1]; biligand vs its macrocycle anchors,> 30 fold
same,EC50,"[1]; biotinylated biligand immobilized on NeutrAvidin plate, CD8α titrated 200 to 0 nM, read-out: EC50 against CD8",0.2 nM
"N=C(N)NCCC[C@@H]1NC(=O)CNC(=O)[C@H](Cc2c[nH]cn2)NC(=O)[C@@H](NC(=O)COCCOCCOCCNC(=O)CCCC[C@H]2SC[C@H]3NC(=O)N[C@H]32)Cc2cn(nn2)CCCC[C@@H](C(N)=O)NC(=O)[C@H](Cc2c[nH]cn2)NC(=O)CNC1=O [biotin-PEG3-Cy(HGRGH)] ({Biotinyl(3aR,4R,6aS)-AEEEA}-[Pra]HGRGH[Lys(N3)]-NH2; triazole 1-7)",epitope portion giving maximum ELISA signal (preferential binding),His-tagged CD8 epitopes,CD8 Epitope2C
"CC(C)C[C@H]1NC(=O)[C@@H](CO)NC(=O)[C@@H](NC(=O)COCCOCCOCCNC(=O)CCCC[C@H]2SC[C@H]3NC(=O)N[C@H]32)Cc2cn(nn2)CCCC[C@@H](C(N)=O)NC(=O)CNC(=O)[C@@H](Cc2ccccc2)NC(=O)[C@@H](CCCNC(=N)N)NC1=O [biotin-PEG3-Cy(slrfG)] ({Biotinyl(3aR,4R,6aS)-AEEEA}-[Pra][dS][dL][dR][dF]G[Lys(N3)]-NH2; triazole 1-7)",epitope portion giving maximum ELISA signal (preferential binding),His-tagged CD8 epitopes,CD8 Epitope2N
"CC(C)[C@H]1NC(=O)[C@@H](CC(N)=O)NC(=O)[C@@H](C(C)C)NC(=O)[C@@H](CO)NC(=O)[C@@H](Cc2c[nH]c3ccccc23)NC(=O)[C@@H](NC(=O)COCCOCCOCCNC(=O)CCCC[C@H]2SC[C@H]3NC(=O)N[C@H]32)Cc2cn(nn2)CCCC[C@@H](C(N)=O)NC1=O [biotin-PEG3-Cy(wsvnv)] ({Biotinyl(3aR,4R,6aS)-AEEEA}-[Pra][dW][dS][dV][dN][dV][Lys(N3)]-NH2; triazole 1-7)",epitope portion giving maximum ELISA signal (preferential binding),His-tagged CD8 epitopes,CD8 Epitope2C
"[^18F]FB-labeled Cy(AKYRG): macrocycle anchor Cy(AKYRG), aminooxy-derivatized and labeled with 4-[^18F]fluorobenzaldehyde (oxime) (triazole (positions not given here); not fully specified (N-terminus, C-terminus, bridges); also: exact cyclisation residues not given here)",biodistribution and clearance route by PET (in words),[2],kidney clearance to the bladder (on the order of one hour) with little liver activity
same,location of the peptide by 2 hours post-injection,[2],mostly in the bladder

# — patent publication US12594350B2, “CD8-specific capture agents, compositions, and methods of using and making” (Regeneron Pharmaceuticals, Inc., priority 2016, dated 2026)
